Measured values from publication PMC12136788.
Some of the results follow.

B1: chr1:45693489:45693605:+|CDS|ENSG00000159596|unk|FALSE|unique (ssRNA)
RNA: GGGAGUUCUACAGUCCGACGAUCAAUCCCCUUCGUUGCUCCACCACUGGUCAUGCUGAUGACAAAAACUUAUAUUCCCAUAUUAGCUUUUACUCAGAUGGCUUAUGGAGCCAGUUUCCUAUCUUUCUUGGGUGGGAUCAGAUGCAACAGAGGAUUGAGCAUCA
B2: chr2:5695263:5695412:+|3pUTR|ENSG00000176887|msi1_unk|total|mutant (ssRNA)
RNA: GGGAGUUCUACAGUCCGACGAUCUGGUGAUACCGACCUCAGAGCUGUUAUCUCCGUUUAAAGAUUGUAUAUGUACUGUACUACCGCCGGACUUUAUGUAUCUCAUACGCUGUGAUGUGGAUGGGGCCCCAGAUGGAAGGUUUGCAACAGAGGAUUGAGCAUCA
B3: chr10:92050442:92050545:-|3pUTR|ENSG00000107864|unk|total|mutant (ssRNA)
RNA: GGGAGUUCUACAGUCCGACGAUCAUGAAGGCCUGCCCGCACCCGCGUGGACAUUUUUCCCGCAUUCACCCUUGGGCUGCAGACCGUAAUAUAUAAACACACACAAUGAUUGCAAGACUAUGUAAAUCUUUUUUUAAUCUUCUUCAACAGAGGAUUGAGCAUCA
B4: chr11:35231115:35231675:+|3pUTR|ENSG00000026508|msi1|total|mutant (ssRNA)
RNA: GGGAGUUCUACAGUCCGACGAUCCAGGACAAGGUUCAAAAUGGUUACAACAGCCUCUACCUGUCGCCCCAGGGAGAAAGGGGCCGUGAUACAAGUCUCACCGCCAGAGAUGGUUUUCCACUCCUUCCCGAUAUUCCCAAAAAGCAACAGAGGAUUGAGCAUCA
B5: chr4:24540214:24540319:-|CDS|ENSG00000109606|unk|FALSE|unique (ssRNA)
RNA: GGGAGUUCUACAGUCCGACGAUCUACUUUGUCACAUUUUUGCUUGCUUAAGGCACCGUGUCUAAUAGAUUGUCUUUUACCACUAGCUCCUGAAACUCUGAUGAGAGCCCUGGAACUUUUGAAUUACCUGGCUGCUUUAAAUGACAACAGAGGAUUGAGCAUCA
B6: chr4:175632990:175633131:-|3pUTR|ENSG00000150625|msi1|total|mutant (ssRNA)
RNA: GGGAGUUCUACAGUCCGACGAUCGUUGACACUUUUGGCUUUUAUUUCUGGUAUCCGAGUUUGUAUUUUCACAGAGUGCUUUGCCGCAGGCAUUACAAUUAAUCUGUUUUGUACAUAAAUGUGCCAACAGCUUGAUGGUGGCGUCAACAGAGGAUUGAGCAUCA
B7: chr5:175441761:175443099:-|CDS|ENSG00000184845|control|control|control (ssRNA)
RNA: GGGAGUUCUACAGUCCGACGAUCGAAGGCAUUUUCAACCCUCUUAGGAUGCUACAGACUUUGCCCUGCGACGAAUAAUGCCAUAGAGACGGUGAGUAUCAAUAACAAUGGGGCCGCGAUGUUUUCCAGCCAUCAUGAGCCACGCAACAGAGGAUUGAGCAUCA
B8: chr14:77132432:77132533:-|3pUTR|ENSG00000177108|unk|FALSE|unique (ssRNA)
RNA: GGGAGUUCUACAGUCCGACGAUCUGUGAUUGCUGGACCCAGAGGCAAGAUCUGCAGAGAUGCCUGUGAGAUAUUUGCUUUCCUAGAGGGGAGUGUGGGCAUGGGAGGGGUCUGAAAAUCAGGACCCAACCCAGCCACUGAAGACAACAGAGGAUUGAGCAUCA
B9: chr5:16781720:16781826:-|CDS|ENSG00000145555|unk|total|mutant (ssRNA)
RNA: GGGAGUUCUACAGUCCGACGAUCCUUCACAGCCCCAUCAUGGAAGCUUUCGGCAAUGCGAAGACCGUGUACAACAACAACUCCCGUCGCUUUGGGAAGUUUGUUCAGCUGAACAUCUGUCAGAAAGGAAAUAUUCAGGGCGGGCAACAGAGGAUUGAGCAUCA
B10: chr18:47206168:47206892:-|three_prime_utr|ENSG00000215474|control|control|control (ssRNA)
RNA: GGGAGUUCUACAGUCCGACGAUCCAGGUUCAGGAGAACCUAAGGACAAGUGACCUCAAAACAGCAUGGACAACCAUGUAAAAUAGACUGUAGCAGCCAUUCAUUAGUGGGGGGAGGGGGGAGCCAACCAGAGCAGUCAAUGCUCAACAGAGGAUUGAGCAUCA
B11: chr20:4700004:4700108:+|3pUTR|ENSG00000171867|msi1|total|mutant (ssRNA)
RNA: GGGAGUUCUACAGUCCGACGAUCUCACCAUCUUUCUAAUCUUUUUCCAGCUUGAGGGAGGCGGUAUCCACCUGCAGCCCUUUCCGUGGUGGUGUCUCACUCUUUCUUCUCUCUUUGUCCCGGACCGGCUAAUCAAUACCCUUGCAACAGAGGAUUGAGCAUCA
B12: chr17:39792672:39792933:-|CDS|ENSG00000161405|control|control|control (ssRNA)
RNA: GGGAGUUCUACAGUCCGACGAUCAGAGAAUAUAAUGAAUAUGAAAACAUUAAGUUGGAGAGACAUGUUGUCUCAUUCGAUAGUAGCAGGCCAACCAGUGGAAAGAUGAACUGCGAUGUGUGUGGAUUAUCCUGCAUCAGCUUCCAACAGAGGAUUGAGCAUCA
B13: chrX:13708825:13708941:+|CDS|ENSG00000123595|unk|FALSE|unique (ssRNA)
RNA: GGGAGUUCUACAGUCCGACGAUCGAGUUCACUUAUGAACAGAUAUGUAACUAAUAAGUUUGAUACCCAGCUCUUCCAUACAAUAGGUGUGGAAUUUUUAAAUAAAGAUUUGGAAGUGGAUGGACAUUUUGUUACCAUGCAGAUCAACAGAGGAUUGAGCAUCA
B14: chr4:108667705:108667793:+|3pUTR|ENSG00000198856|msi1_unk|FALSE|overlapping (ssRNA)
RNA: GGGAGUUCUACAGUCCGACGAUCUCUGGACAGUUGAUCAGCUUUACCUAUGGUGCUUUGCCUUUAACUAGAGUGUGUGAUGGUAGAUUAUUUCAGAUAUGUAUGUAAAACUGUUUCCUGAACAAUAAGAUGUAUGAACGGAGCCAACAGAGGAUUGAGCAUCA
B15: chr18:35263486:35263657:-|CDS|ENSG00000186814|control|control|control (ssRNA)
RNA: GGGAGUUCUACAGUCCGACGAUCGGAAAUGACAUCCACAGGAGCACUGAAGUCUCUGUCUCUGAAUAGCCCGGUGCAGCCCUUAGAGAACCAGUGCAAGACUGAGACUCAGGAGUCCCAGGCUUUCCAGGAGAGAGGUGAGAACAACAGAGGAUUGAGCAUCA
B16: chr5:113014749:113014850:+|3pUTR|ENSG00000172795|msi1|FALSE|unique (ssRNA)
RNA: GGGAGUUCUACAGUCCGACGAUCUAAAAAUCCUUUUUUACAGUGGUAUCCACAAAAUACUUCUCUGCUUAUAAAUGUUAUUGUAGAAAUCUUUAUUCUGUGUAGGUAGCCUAUUUAAUUGGGUUCCACUGAACCUCAUGGGACCAACAGAGGAUUGAGCAUCA
B17: chr1:66374421:66374522:+|3pUTR|ENSG00000184588|msi1|FALSE|bound_elsewhere (ssRNA)
RNA: GGGAGUUCUACAGUCCGACGAUCACUGCAUUGUUUCAGGUGGACAUUUUAUCAUUUUCAAAUGUUUCUCACAAUGUAUGUUAUAGUAUUAUUAUUAUAUAUUGUGUUCAAAUGCAUUCUAAAGAGACUUUUAUAUGAGGUGAACAACAGAGGAUUGAGCAUCA
B18: chr7:135927258:135927359:-|3pUTR|ENSG00000105887|msi1_unk|FALSE|overlapping (ssRNA)
RNA: GGGAGUUCUACAGUCCGACGAUCCAGCUUCAGACUGUUAUCUAUAGGCUUAUCGUUCAAAUACAGCACUUGAAUAUCCCAAGUAGUUCUUCUACGCAUAGCUCACCUUUCUAAACCCAGUUAAGCAUGGAAGAGAGGUAGUAGCAACAGAGGAUUGAGCAUCA
B19: chr3:100713726:100713879:+|CDS|ENSG00000114354|unk|total|mutant (ssRNA)
RNA: GGGAGUUCUACAGUCCGACGAUCACUUGGGGAGGAUAUUCGGCGAAUUCCUAUUCAUAAUGAAGAUAUUACUUAUGAUGAAUCCGUGCUAAUGAUGCAACGAGUUUUCAGAGGAAAACUUCUGAGUAAUGAUGAAGUAACAAUCAACAGAGGAUUGAGCAUCA
B20: chr10:32033860:32033975:-|CDS|ENSG00000170759|unk|FALSE|unique (ssRNA)
RNA: GGGAGUUCUACAGUCCGACGAUCCACAGUGGAUAAAGAUAUUACUCUUACCAAUGAUAAACCAGCAACCGCAAUUGGAGUUAUAGGAAAUUUUACUGAUGCUGAAAGAAGAAAGUGUGAAGAAGAAAUUGCUAAAUUAUACAACAACAGAGGAUUGAGCAUCA
B21: chr19:13095865:13096029:+|3pUTR|ENSG00000008441|msi1|FALSE|unique (ssRNA)
RNA: GGGAGUUCUACAGUCCGACGAUCCCGCCCCCCACGUGGCCACUUUUCUCUGGAUUUUAGCUGUAAUGUCUUUACUCUUUAUUUAGGGGUGGGGCAUUCAUUGUUUGGGUCUUUUGCUGUUGGAAUGGGAACUCCUCCUCCAUUCAACAGAGGAUUGAGCAUCA
B22: chr1:6592219:6592320:-|3pUTR|ENSG00000162413|unk|FALSE|unique (ssRNA)
RNA: GGGAGUUCUACAGUCCGACGAUCCCCAAAGUAGCCUUGGCUUGAGUUUUUGUCCUUGCCUCCUUUUUAGAGAAGAGGGCAUUUAGACUGCAUUUUCCUGGUUAAAGAAGGUUAAAGCAAAUGUUUAUUGCCUUUUCUAGUGAACAACAGAGGAUUGAGCAUCA

target: T1, UNK ZnF1-6 (called full-length) (human, UniProt Q9C0B0 30-357); test: nsRBNS (natural sequence RNA bind-n-seq); RBNS binding buffer (assumed for nsRBNS): 25 mM Tris pH 7.5, 150 mM KCl, 3 mM MgCl2, 0.01% Triton X-100, 500 ug/ml BSA, 20 U/ml SUPERase-In, 4 C; UNK is unkempt and MSI1 is Musashi-1; names of the RNAs are library labels; protein concentration not given here; high values mean tight binding
T1 sequence: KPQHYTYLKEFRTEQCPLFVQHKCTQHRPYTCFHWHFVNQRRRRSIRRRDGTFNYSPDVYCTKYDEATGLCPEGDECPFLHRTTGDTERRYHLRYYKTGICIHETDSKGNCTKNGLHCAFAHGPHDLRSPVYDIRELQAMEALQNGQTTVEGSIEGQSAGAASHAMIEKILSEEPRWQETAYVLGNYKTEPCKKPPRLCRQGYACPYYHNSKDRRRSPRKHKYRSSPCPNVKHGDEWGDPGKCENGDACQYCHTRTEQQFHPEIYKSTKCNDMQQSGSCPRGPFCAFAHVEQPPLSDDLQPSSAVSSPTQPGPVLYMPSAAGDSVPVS

Binder | binding signal [enrichment R]
B1 | 1.03
B2 | 0.801
B3 | 1.63
B4 | 0.541
B5 | 0.313
B6 | 0.357
B7 | 0.77
B8 | 0.647
B9 | 0.746
B10 | 1.21
B11 | 0.974
B12 | 0.774
B13 | 0.561
B14 | 0.53
B15 | 0.723
B16 | 0.913
B17 | 0.767
B18 | 0.672
B19 | 0.371
B20 | 1.09
B21 | 1.13
B22 | 0.382
